The supplement of paper PMC7335073
Over roughly 4,100 sequences, “relative CpG methylation activity (normalised to average over all NNNCGNNN flanks)” has its median near 0.87; the highest 2% begin near 2.4. The list shows a part of the results.

target: DNMT3A catalytic domain (mouse) (UniProt O88508); assay: relative CpG methylation activity (normalised to average over all NNNCGNNN flanks) (relative (1 = mean)); higher = more methylation of the central CpG; conditions: system: in vitro, murine catalytic domain; CpG state: hemimethylated substrate pool; residues: 608-908
Experimental: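 Deep enzymology: a pool of dsDNA substrates with a central CpG flanked by 10 random nucleotides on each side was methylated by the murine DNMT3A or DNMT3B catalytic domain (0.8 mM SAM, 37 °C, 60 min). Methylation was then read out by hairpin ligation, bisulfite conversion and NGS. Values are the average methylation of each NNNCGNNN context (±3 flanks; the outer flanks are random and averaged over), normalised to the overall mean, so 1 = average activity.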

Row | Sequence | relative CpG methylation activity
1 | CCCCGTAT | 0.744
2 | GGTCGTGA | 0.352
3 | CTACGACT | 1.86
4 | GTCCGCTG | 1.42
5 | ATTCGATG | 0.385
6 | CTCCGGTT | 1.61
7 | CCGCGGCG | 0.896
8 | GTACGTAG | 1.18
9 | CAGCGCAG | 0.267
10 | GAACGGTA | 0.646
11 | GCGCGGGG | 0.217
12 | GATCGATG | 0.0725
13 | AAACGTCC | 1.19
14 | TACCGCAG | 0.256
15 | AGTCGCAT | 0.486
16 | CACCGCGT | 0.896
17 | AGCCGTAT | 0.461
18 | GACCGGCC | 1.23
19 | CCGCGCAC | 1.17
20 | GAACGTTA | 0.565
21 | CCGCGTAG | 0.667
22 | TAACGCAA | 0.653
23 | AAACGCAA | 0.621
24 | ATACGGCC | 2.06
25 | GGTCGATA | 0.458

Row | Sequence | relative CpG methylation activity
26 | AGCCGATT | 0.672
27 | GAGCGCCG | 0.865
28 | TGACGCTC | 1.26
29 | GTTCGCGT | 1.13
30 | GATCGCAA | 0.458
31 | ATGCGTCT | 1.97
32 | TGGCGTCG | 0.758
33 | CAACGGCA | 1.03
34 | GTTCGGCT | 1.62
35 | GAACGTCC | 1.06
36 | GATCGCGG | 0.192
37 | GAACGGAT | 0.564
38 | CTACGCAA | 2.07
39 | CTCCGGAC | 1.43
40 | CGACGGAA | 0.813
41 | GATCGGCG | 0.337
42 | TCCCGGGA | 0.917
43 | CCTCGGCA | 0.985
44 | TCTCGATA | 0.597
45 | TAACGAAC | 1.14
46 | ACACGCTC | 2.4
47 | AGCCGCAG | 0.256
48 | GACCGTCG | 1.29
49 | CTGCGGCG | 0.556
50 | TCACGGTC | 1.6

Row | Sequence | relative CpG methylation activity
51 | AGGCGTCA | 1.07
52 | AATCGTCT | 0.672
53 | GGCCGACC | 1.01
54 | CCTCGTCA | 1.72
55 | ACCCGTCG | 1.85
56 | CAGCGACA | 0.56
57 | TCCCGATA | 1.35
58 | GATCGACG | 0.376
59 | CCACGCTA | 1.53
60 | TACCGCTG | 0.952
61 | AACCGGCG | 0.692
62 | TCTCGCTA | 1.4
63 | AGTCGTTG | 0.441
64 | ATACGCGC | 1.93
65 | TATCGGAT | 0.25
66 | CTTCGTTG | 0.714
67 | CGGCGCGT | 0.446
68 | AGTCGAGG | 0.159
69 | GAACGAAC | 0.841
70 | ATCCGGGT | 1.44
71 | ATACGCGT | 1.9
72 | GTTCGATC | 1.21
73 | CACCGTCG | 1.24
74 | GGACGGAT | 0.391
75 | TCCCGCCC | 1.99

Row | Sequence | relative CpG methylation activity
76 | TATCGCGA | 0.514
77 | TTCCGATC | 2.29
78 | AGCCGTGG | 0.321
79 | GATCGCAT | 0.449
80 | GCGCGGAT | 0.34
81 | TACCGACT | 0.963
82 | TAGCGGAA | 0.375
83 | ACTCGGCA | 0.904
84 | GCTCGTAA | 0.912
85 | CGCCGCCA | 1.25
86 | ACCCGAGA | 1.13
87 | AGGCGATA | 0.629
88 | AAACGCTA | 0.746
89 | TCACGGAA | 1.39
90 | AGCCGCCA | 1.02
91 | TCACGTGC | 1.07
92 | AACCGTCT | 1.51
93 | CTGCGTAG | 1.27
94 | CTGCGTAT | 0.851
95 | TGACGAAA | 0.589
96 | GATCGCGA | 0.335
97 | TAACGCGA | 0.673
98 | TGCCGTAC | 0.828
99 | AAGCGACG | 0.311
100 | TGACGGGC | 0.952

Row | Sequence | relative CpG methylation activity
101 | TATCGAGC | 0.705
102 | ATACGCCG | 2.33
103 | CCCCGTGA | 0.598
104 | CAACGCGC | 1.04
105 | ATCCGTCG | 2.08
106 | GCGCGACT | 0.797
107 | CAGCGATC | 0.819
108 | GTCCGGAA | 1.51
109 | CATCGTGG | 0.291
110 | TATCGCTA | 0.839
111 | TCTCGTGC | 0.46
112 | AAGCGAGA | 0.525
113 | GGACGACT | 0.878
114 | GGGCGGAC | 0.769
115 | CCCCGGTT | 0.766
116 | CTCCGGGA | 0.798
117 | TAACGCCG | 1.14
118 | CACCGTAG | 0.625
119 | ATACGCTC | 2.73
120 | TGGCGTCA | 1.12
121 | ATGCGTCA | 1.82
122 | TATCGCTC | 1.78
123 | GTCCGAAC | 1.91
124 | GTCCGTAC | 1.42
125 | TGTCGAGC | 0.459

Row | Sequence | relative CpG methylation activity
126 | CTGCGAGA | 1.06
127 | GTCCGTCT | 2.14
128 | TTGCGACC | 1.46
129 | AAGCGGGT | 0.567
130 | GCACGACC | 1.36
131 | AGCCGGAC | 0.673
132 | CCACGCCT | 2.24
133 | AGACGGCC | 1.49
134 | CTCCGACT | 1.55
135 | GGTCGTGC | 0.26
136 | CTCCGAGG | 1.01
137 | AACCGATA | 0.968
138 | TCCCGCGC | 0.962
139 | ACACGGAA | 1.11
140 | ACCCGTGG | 0.188
141 | AGCCGGCT | 0.977
142 | GGCCGGAG | 0.135
143 | GACCGCGT | 0.574
144 | ATCCGTCA | 1.95
145 | GGGCGTTC | 0.545
146 | GAACGACA | 0.886
147 | CCCCGACG | 1.16
148 | CGACGGCA | 0.474
149 | TTACGGCT | 1.84
150 | ACGCGACC | 1.24

Row | Sequence | relative CpG methylation activity
151 | CGTCGAGC | 1.06
152 | AACCGAGT | 0.815
153 | ACACGTCG | 2.02
154 | GCTCGGTG | 0.431
155 | GACCGAAC | 1.61
156 | CGACGCGT | 0.316
157 | AGCCGGGT | 0.732
158 | GACCGACT | 1.21
159 | ACGCGTGT | 0.221
160 | ATTCGCAA | 1.09
161 | ATACGAAT | 1.62
162 | TCGCGGCT | 0.852
163 | GCTCGGAG | 0.116
164 | TTCCGGCA | 1.67
165 | GTTCGAGA | 0.812
166 | TCGCGTAC | 0.584
167 | TACCGTGG | 0.352
168 | CGTCGTTA | 0.474
169 | TGACGAAC | 0.947
170 | TCTCGTTG | 0.455
171 | CCACGTCC | 1.94
172 | GCTCGTCT | 1.22
173 | TTCCGTCA | 2.29
174 | CTTCGCTT | 1.78
175 | CACCGCAA | 0.673

Row | Sequence | relative CpG methylation activity
176 | CGTCGGTG | 0.167
177 | TCCCGGGG | 0.435
178 | ACTCGTAA | 1.27
179 | GCACGTTC | 1.11
180 | TGGCGCTC | 1.43
181 | CGGCGGTA | 0.278
182 | AGACGTTT | 0.455
183 | TTTCGCCA | 1.69
184 | CCGCGAGG | 0.246
185 | GGGCGAGA | 0.847
186 | ATCCGAAA | 1.81
187 | GTACGGTA | 1.05
188 | AACCGAGC | 1.56
189 | CGGCGAGG | 0.323
190 | TAACGCGT | 0.545
191 | GAGCGCCC | 1.38
192 | GTGCGATA | 1.26
193 | TGCCGACT | 0.738
194 | GGGCGAAA | 0.847
195 | CTACGTTG | 1.15
196 | ACTCGCCA | 1.66
197 | ACGCGTTA | 0.973
198 | TGACGTCG | 1.02
199 | GCACGTTT | 0.988
200 | AATCGCAC | 0.435

Row | Sequence | relative CpG methylation activity
201 | GATCGATA | 0.331
202 | CTTCGACG | 1.03
203 | CGCCGAAA | 0.89
204 | CTACGTGG | 0.594
205 | TTCCGTGC | 1.52
206 | GCGCGGGT | 0.854
207 | TACCGTCC | 1.49
208 | AAGCGATC | 1.05
209 | GGGCGAAT | 0.556
210 | ACACGTCC | 2.46
211 | GAACGAAA | 0.751
212 | TTTCGATG | 0.37
213 | ATTCGGGA | 0.388
214 | TTCCGTAT | 1.21
215 | TCACGTCC | 1.98
216 | GAGCGCGG | 0.2
217 | AAGCGAGT | 0.688
218 | TTTCGGGC | 0.847
219 | AAACGCGA | 0.522
